{
  "source": "paper PMC9911399",
  "about": "“Two distinct binding modes provide the RNA-binding protein RbFox with extraordinary sequence specificity”",
  "binders": {"B1": {"name": "UCGUUAA (DNA:RNA)", "RNA": "GGGAGACCGGAAUUCAGAUUGUCCUCGUUAAUUAAAUCCCGUCGUAGCCACCA", "DNA 1": "CAATCTGAATTCCGGTCTCCC", "DNA 2": "TGGTGGCTACGACGGGATT"}, "B2": {"name": "GUGCUGA (DNA:RNA)", "RNA": "B1 RNA with U25G, C26U, U28C, A30G", "DNA 1": "CAATCTGAATTCCGGTCTCCC", "DNA 2": "TGGTGGCTACGACGGGATT"}, "B3": {"name": "GGAUAGC (DNA:RNA)", "RNA": "B1 RNA with U25G, C26G, G27A, U29A, A30G, A31C", "DNA 1": "CAATCTGAATTCCGGTCTCCC", "DNA 2": "TGGTGGCTACGACGGGATT"}, "B4": {"name": "GAAGGAG (DNA:RNA)", "RNA": "B1 RNA with U25G, C26A, G27A, U28G, U29G, A31G", "DNA 1": "CAATCTGAATTCCGGTCTCCC", "DNA 2": "TGGTGGCTACGACGGGATT"}, "B5": {"name": "CAAAUCC (DNA:RNA)", "RNA": "B1 RNA with U25C, C26A, G27A, U28A, A30C, A31C", "DNA 1": "CAATCTGAATTCCGGTCTCCC", "DNA 2": "TGGTGGCTACGACGGGATT"}, "B6": {"name": "UCUAUCC (DNA:RNA)", "RNA": "B1 RNA with G27U, U28A, A30C, A31C", "DNA 1": "CAATCTGAATTCCGGTCTCCC", "DNA 2": "TGGTGGCTACGACGGGATT"}, "B7": {"name": "GUAGUAC (DNA:RNA)", "RNA": "B1 RNA with U25G, C26U, G27A, U28G, A31C", "DNA 1": "CAATCTGAATTCCGGTCTCCC", "DNA 2": "TGGTGGCTACGACGGGATT"}, "B8": {"name": "CAUCUCG (DNA:RNA)", "RNA": "B1 RNA with U25C, C26A, G27U, U28C, A30C, A31G", "DNA 1": "CAATCTGAATTCCGGTCTCCC", "DNA 2": "TGGTGGCTACGACGGGATT"}, "B9": {"name": "AGCAUCC (DNA:RNA)", "RNA": "B1 RNA with U25A, C26G, G27C, U28A, A30C, A31C", "DNA 1": "CAATCTGAATTCCGGTCTCCC", "DNA 2": "TGGTGGCTACGACGGGATT"}, "B10": {"name": "AAUCCCA (DNA:RNA)", "RNA": "B1 RNA with U25A, C26A, G27U, U28C, U29C, A30C", "DNA 1": "CAATCTGAATTCCGGTCTCCC", "DNA 2": "TGGTGGCTACGACGGGATT"}, "B11": {"name": "UUGGGCC (DNA:RNA)", "RNA": "B1 RNA with C26U, U28G, U29G, A30C, A31C", "DNA 1": "CAATCTGAATTCCGGTCTCCC", "DNA 2": "TGGTGGCTACGACGGGATT"}, "B12": {"name": "AGCCAAC (DNA:RNA)", "RNA": "B1 RNA with U25A, C26G, G27C, U28C, U29A, A31C", "DNA 1": "CAATCTGAATTCCGGTCTCCC", "DNA 2": "TGGTGGCTACGACGGGATT"}, "B13": {"name": "UAAGUAU (DNA:RNA)", "RNA": "B1 RNA with C26A, G27A, U28G, A31U", "DNA 1": "CAATCTGAATTCCGGTCTCCC", "DNA 2": "TGGTGGCTACGACGGGATT"}, "B14": {"name": "CGUAAGU (DNA:RNA)", "RNA": "GGGAGACCGGAAUUCAGAUUGUCCCGUAAGUUUAAAUCCCGUCGUAGCCACCA", "DNA 1": "CAATCTGAATTCCGGTCTCCC", "DNA 2": "TGGTGGCTACGACGGGATT"}, "B15": {"name": "AAGGCAU (DNA:RNA)", "RNA": "B1 RNA with U25A, C26A, U28G, U29C, A31U", "DNA 1": "CAATCTGAATTCCGGTCTCCC", "DNA 2": "TGGTGGCTACGACGGGATT"}, "B16": {"name": "UAGACAU (DNA:RNA)", "RNA": "B1 RNA with C26A, U28A, U29C, A31U", "DNA 1": "CAATCTGAATTCCGGTCTCCC", "DNA 2": "TGGTGGCTACGACGGGATT"}, "B17": {"name": "CACUGAU (DNA:RNA)", "RNA": "B14 RNA with G26A, U27C, A28U, A29G, G30A", "DNA 1": "CAATCTGAATTCCGGTCTCCC", "DNA 2": "TGGTGGCTACGACGGGATT"}, "B18": {"name": "UGAAACA (DNA:RNA)", "RNA": "B14 RNA with C25U, U27A, G30C, U31A", "DNA 1": "CAATCTGAATTCCGGTCTCCC", "DNA 2": "TGGTGGCTACGACGGGATT"}, "B19": {"name": "UCCGGAA (DNA:RNA)", "RNA": "B1 RNA with G27C, U28G, U29G", "DNA 1": "CAATCTGAATTCCGGTCTCCC", "DNA 2": "TGGTGGCTACGACGGGATT"}, "B20": {"name": "AACGGAU (DNA:RNA)", "RNA": "B14 RNA with C25A, G26A, U27C, A28G, A29G, G30A", "DNA 1": "CAATCTGAATTCCGGTCTCCC", "DNA 2": "TGGTGGCTACGACGGGATT"}},
  "note": "Positions count from the first letter of the chain named. The list shows a part of the results.",
  "data": [
    {"target": "T1, RBFOX1 RRM (Homo sapiens, UniProt Q9NWB1 109-208)", "T1 sequence": "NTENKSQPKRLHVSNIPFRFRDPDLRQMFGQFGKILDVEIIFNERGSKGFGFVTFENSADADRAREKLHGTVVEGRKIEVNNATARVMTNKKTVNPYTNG", "assay": "EMSA; HiTS-Eq, 1 nM pool, 10 min; buffer printed only for the single-RNA assays: 10 mM Tris pH 7.5, 150 mM NaCl, 3.4 mM EDTA, 0.001% NP-40, 30 C", "conditions": "tags: His6 N-terminal (pET28a); label: 5' 32P", "outline": "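Purified RbFox RRM (wild type or mutant) was equilibrated for 10 min in 50 µL with 1 nM of a 5′-radiolabelled pool of RNA with 7 randomized nucleotides, its flanks annealed to DNA oligonucleotides, across increasing protein concentrations. Free RNA was separated by 8% native PAGE, excised, reverse-transcribed, PCR-barcoded and sequenced on an Illumina HiSeq 2500. Relative association constants came from read-count changes of each variant against the control reaction, normalised to the cognate motif.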", "values": [
      {"binder": "B1", "binding signal": "0.00632 KA relative to UGCAUGU"},
      {"binder": "B2", "binding signal": "0.0323 KA relative to UGCAUGU"},
      {"binder": "B3", "binding signal": "0.014 KA relative to UGCAUGU"},
      {"binder": "B4", "binding signal": "0.00502 KA relative to UGCAUGU"},
      {"binder": "B5", "binding signal": "0.000273 KA relative to UGCAUGU"},
      {"binder": "B6", "binding signal": "0.00481 KA relative to UGCAUGU"},
      {"binder": "B7", "binding signal": "0.0112 KA relative to UGCAUGU"},
      {"binder": "B8", "binding signal": "0.00555 KA relative to UGCAUGU"},
      {"binder": "B9", "binding signal": "0.0214 KA relative to UGCAUGU"},
      {"binder": "B10", "binding signal": "0.000887 KA relative to UGCAUGU"},
      {"binder": "B11", "binding signal": "0.0194 KA relative to UGCAUGU"},
      {"binder": "B12", "binding signal": "0.00125 KA relative to UGCAUGU"},
      {"binder": "B13", "binding signal": "0.0115 KA relative to UGCAUGU"},
      {"binder": "B14", "binding signal": "0.00915 KA relative to UGCAUGU"},
      {"binder": "B15", "binding signal": "0.0103 KA relative to UGCAUGU"},
      {"binder": "B16", "binding signal": "0.00404 KA relative to UGCAUGU"},
      {"binder": "B17", "binding signal": "0.00636 KA relative to UGCAUGU"},
      {"binder": "B18", "binding signal": "0.00828 KA relative to UGCAUGU"},
      {"binder": "B19", "binding signal": "0.00835 KA relative to UGCAUGU"},
      {"binder": "B20", "binding signal": "0.00561 KA relative to UGCAUGU"}
    ]}
  ]
}
